{"source": "PubChem BioAssay AID651820", "about": "(National Center for Advancing Translational Sciences (NCATS), 2012)", "note": "Screen size: about 340,000 compounds; about 12,000 (3.5%) were called active. Inconclusive means that the source gave no clear call. Such entries were picked first, then a sample of the others. Calls follow the shape of the dose curve; as a rule, active = well fitted inhibition curve with a large enough effect; inconclusive = small, poorly fitted or top-dose-only effect, or another doubt; inactive = no such curve, though single readings can be large or run the other way. Potencies of inconclusive entries are left out as doubtful fits. % is scaled to controls: 0 for no effect and ±100 for the full control effect; tags tell the direction and shape of the fitted curve."}
{"assay": "qHTS Assay for Inhibitors of Hepatitis C Virus (HCV)", "details": "Huh7.5.1 HCVcc-Cre (HCVcc is cell-culture hepatitis C virus) infection, luciferase reporter, 44 h; activity change, negative = inhibition: at 41.8 µM (top of the series) unless noted", "text": "Hepatitis C virus (HCV) infects about 200 million people in the world. Many infected people progress to chronic liver disease including cirrhosis with a risk of developing liver cancer. To date, there is no effective vaccine for hepatitis C. Current therapy based on interferon is only effective in about half of the patients and is associated with significant adverse effects. The fraction of people with HCV who can complete a successful treatment is estimated to be no more than 10 percent. Recent development of direct-acting antivirals against HCV, such as protease and polymerase inhibitors, is promising but still requires combination with peginterferon and ribavirin for maximal efficacy. In addition, these agents are associated with high rate of resistance and many have significant side effects. Due to the lack of a culture system for infectious HCV, the search for new HCV drugs has been greatly hampered. […] High-throughput screening (HTS) with an infectious HCV system would cover the complete spectrum of potentially druggable targets in all stages of HCV lifecycle, and would have more biological relevance than other cell-based assays. Moreover, targeting several key processes in the viral life cycle may not only increase antiviral efficacy; more importantly, it may also reduce the capacity of the virus to develop resistance to the compound. The goal of this project is to identify novel HCV inhibitors as new therapies for hepatitis C, using a highly sensitive and specific assay platform which is based on a HCV infectious cell culture system established in the laboratory and adapted for high-throughput HCV drug screen. NIH Chemical Genomics Center [NCGC] NIH Molecular Libraries Probe Centers Network [MLPCN] MLPCN Grant: MH095511 Assay Submitter (PI): Jake Liang, NIDDK\nThe assay will start with plating 1,000 cells/well in 3 µL volume and culture for 4 h. Then 23 nL of compounds from the library collection will be added to each well, followed by adding 2.5 µL of HCVcc-Cre virus (~ 0.5 moi) and further cultured for 44 h before the luciferase assay. A volume of 4.5 µL luciferase substrates will be added to each well and the plates will be incubated at room temperature for 15 min. and then read for 15 sec. for the luciferase activity"}
{"smiles": "Cc1nn(-c2ccc(Cl)cc2)c2sc(C(=O)N3CCN(c4ccccn4)CC3)cc12", "Potency": "inconclusive [inhibitor, full curve]"}
{"smiles": "COc1cccc(-n2cc(C(=O)NC(C)C)c3ccccc3c2=O)c1", "activity change, negative = inhibition": "inactive: 5.94%"}
{"smiles": "COc1cc(/C=C2/SC(=S)N(Cc3ccccc3)C2=O)cc(Cl)c1O", "Potency": "inconclusive [inhibitor, partial curve]"}
{"smiles": "Cc1cc(N2CCOCC2)n2ncc(-c3ccccc3)c2n1", "Potency": "inconclusive [inhibitor, single point]"}
{"smiles": "Cc1ccc(S(=O)(=O)N2CCC[C@H]2C(=O)Nc2ccccc2C)cc1", "activity change, negative = inhibition": "inactive: -17.7%"}
{"smiles": "CCOC(=O)/C(=C/c1c[nH]c2ccccc12)NC(C)=O", "activity change, negative = inhibition": "inactive: 12.9%"}
{"smiles": "COC(=O)c1[nH]c2cccc(Cl)c2c1NC(=O)CN(C)C1CCCCC1", "Potency": "inconclusive [inhibitor, single point]"}
{"smiles": "COc1ccc(N2CCN(C3CCCN(S(=O)(=O)c4ccc(C)cc4C)C3)CC2)cc1", "note": "(stereo not given)", "Potency": "active: 8.91 µM"}
{"smiles": "CC1SC(=S)N(c2ccc(N(C)C)cc2)C1=O", "note": "(stereo not given)", "Potency": "inconclusive [inhibitor, single point]"}
{"smiles": "CC(=O)N1CC=CC1(CC(C)C)C(=O)NCCN1CCOCC1", "note": "(stereo not given)", "activity change, negative = inhibition": "inactive: 3.16%"}
{"smiles": "COc1ccc(NC(=O)NCCCN2CCC(Cc3ccccc3)CC2)cc1", "Potency": "inconclusive [inhibitor, partial curve]"}
{"smiles": "c1ccc(OCc2nn3c(Cn4nnc5ccccc54)nnc3s2)cc1", "Potency": "inconclusive [inhibitor, single point]"}
{"smiles": "Cc1ccc(OCC(=O)NCCCNC(=O)c2cnccn2)cc1C", "activity change, negative = inhibition": "inactive: 18.1%"}
{"smiles": "O=C1/C(=C/c2ccncc2)Oc2cc(OS(=O)(=O)c3ccccc3)ccc21", "Potency": "inconclusive [inhibitor, single point]"}
{"smiles": "Cc1ccc(-n2nnnc2SC(C)C(=O)NCC(=O)Nc2ccc(F)c(F)c2F)c(C)c1", "note": "(stereo not given)", "Potency": "inconclusive [inhibitor, full curve]"}
{"smiles": "NS(=O)(=O)c1ccc(NC(=O)c2cc(-c3cc(Cl)ccc3O)n[nH]2)cc1", "activity change, negative = inhibition": "inactive: -15.3%"}
{"smiles": "COc1ccc(O)c(C(=O)CC(=O)c2cccnc2)c1", "Potency": "inconclusive [inhibitor, single point]"}
{"smiles": "Cc1ccccc1NC(=O)C(C)O/N=C/c1cccc([N+](=O)[O-])c1", "note": "(stereo not given)", "Potency": "inconclusive [inhibitor, single point]"}
{"smiles": "Cc1ccc(/C(N)=N/OC(=O)c2ccc(Cl)cc2Cl)cc1", "Potency": "inconclusive [inhibitor, single point]"}
{"smiles": "COc1ccc(-c2c(-c3ccccc3OC)sc3ccccc23)cc1", "Potency": "inconclusive [inhibitor, partial curve]"}
{"smiles": "COc1ccc(OC)c(C(=O)N2CCCC(Nc3ccc(F)cc3)C2)c1", "note": "(stereo not given)", "activity change, negative = inhibition": "inactive: -9.41%"}
{"smiles": "COc1cc(C(=O)NC2CCCc3ccccc32)cc(OC)c1OC", "note": "(stereo not given)", "Potency": "inconclusive [inhibitor, single point]"}
{"smiles": "CCN1CCN(c2ccc(S(=O)(=O)N3CCCCC3)cc2NC(=O)c2ccc(C)c(C)c2)CC1", "Potency": "inconclusive [inhibitor, partial curve]"}
{"smiles": "O=C(CCc1nc2ccccc2c(=O)[nH]1)N1CCN(c2ccc(F)cc2)CC1", "Potency": "inconclusive [inhibitor, single point]"}
{"smiles": "O=C(Nc1cccc(C(F)(F)F)c1)N(Cc1ccc(Cl)cc1)CC(O)C(F)(F)F", "note": "(stereo not given)", "Potency": "inconclusive [inhibitor, full curve, poor fit]"}
{"smiles": "CCCCSc1nc2sc3c(c2c(=O)n1-c1ccccc1)CCN(C)C3", "Potency": "inconclusive [inhibitor, partial curve]"}
{"smiles": "CC(NC1=CC(=O)c2cccnc2C1=O)C(O)c1ccccc1", "note": "(stereo not given)", "Potency": "inconclusive [inhibitor, partial curve]"}
{"smiles": "O=C(/C=C/c1cccs1)c1ccc(Br)cc1", "activity change, negative = inhibition": "inactive: 15.9%"}
{"smiles": "CCOC(=O)c1nnc(-c2ccccc2)nc1N1CCSCC1", "Potency": "inconclusive [inhibitor, single point]"}
{"smiles": "Nc1ccc(C(=O)OCc2csc(-c3ccccc3)n2)cc1[N+](=O)[O-]", "Potency": "inconclusive [inhibitor, single point]"}
{"smiles": "O=S(=O)(N/N=C\\c1ccc2c(c1)OCO2)c1ccc(Cl)cc1", "Potency": "inconclusive [inhibitor, single point]"}
{"smiles": "CCOC(=O)c1cc(-c2ccc(Cl)cc2)nc2c1c(C)nn2CCC#N", "Potency": "inconclusive [inhibitor, full curve, poor fit]"}
{"smiles": "CCOc1ccc(C(C)=O)cc1Cn1nc(C(=O)O)c2ccccc2c1=O", "Potency": "active: 7.94 µM"}
{"smiles": "CCC(C(=O)O)n1nnc(-c2ccc(-c3ccc(OC)cc3)cc2)n1", "note": "(stereo not given)", "activity change, negative = inhibition": "inactive: 6.7%"}
{"smiles": "CC(=O)c1ccc(NC(=O)CSc2ccc(-c3sc(C)nc3C)nn2)cc1", "Potency": "inconclusive [inhibitor, single point]"}
{"smiles": "Cn1cccc1C(=O)Nc1nccs1", "activity change, negative = inhibition": "inactive: -12.1%"}
{"smiles": "CC(CNC(=O)CN1C(=O)COc2ccc(S(=O)(=O)N3CCCCC3)cc21)c1ccccc1", "note": "(stereo not given)", "Potency": "inconclusive [inhibitor, full curve, poor fit]"}
{"smiles": "COc1ccccc1C1CC(=O)Oc2c(C(C)C)ccc(C)c21", "note": "(stereo not given)", "Potency": "inconclusive [inhibitor, full curve, poor fit]"}
{"smiles": "CCOC(=O)c1[nH]ncc1CN1CCCC(C(=O)c2ccc(C(C)(C)C)cc2)C1", "note": "(stereo not given)", "activity change, negative = inhibition": "inactive: -5.38%"}
{"smiles": "COc1ccc(N2CCN(c3nc4c(c(=O)[nH]c(=O)n4C)n3Cc3cccc(C)c3)CC2)cc1", "Potency": "inconclusive [inhibitor, single point]"}
{"smiles": "COc1nnc(-c2ccc(N3CCCCC3)c(NC(=O)C3CCCCC3)c2)c2ccccc12", "activity change, negative = inhibition": "inactive: -8.73%"}
{"smiles": "CCOC(=O)c1c(C)[nH]c(N=Nc2ccc(C)cc2C)c1C", "Potency": "inconclusive [inhibitor, single point]"}
{"smiles": "O=C(/C=C/c1ccc(-c2ccccc2[N+](=O)[O-])o1)c1ccc(Br)cc1", "Potency": "inconclusive [inhibitor, single point]"}
{"smiles": "COc1ccc(-n2c(C)cc(C(=O)Cn3nnc4ccccc4c3=O)c2C)cc1", "Potency": "inconclusive [inhibitor, partial curve]"}
{"smiles": "COc1cc2c(C(=O)N3CCN(c4ccccc4)CC3)c(C)oc2cc1Br", "Potency": "inconclusive [inhibitor, single point]"}
{"smiles": "COc1ccc2ccc(Oc3ncccn3)cc2c1", "Potency": "inconclusive [inhibitor, single point]"}
{"smiles": "CC(C)(C)c1cc(N2CCOCC2)n2ncc(-c3ccccc3)c2n1", "Potency": "inconclusive [inhibitor, partial curve]"}
{"smiles": "O=C(c1ccc(Br)s1)N1CCc2ccccc2C1", "Potency": "inconclusive [inhibitor, partial curve]"}
{"smiles": "O=C(CN(Cc1ccco1)C(=O)c1ccccc1)Nc1ccc(Cl)c(Cl)c1", "Potency": "inconclusive [inhibitor, single point]"}
{"smiles": "COc1ccccc1C(NC(C)=O)c1cc(Cl)c2cccnc2c1O", "note": "(stereo not given)", "Potency": "inconclusive [inhibitor, partial curve]"}
{"smiles": "CCOC(=O)/C(=C/c1cn(C)c2ccccc12)NC(=O)c1ccccc1", "activity change, negative = inhibition": "inactive: -11.1%"}
{"smiles": "CS(=O)(=O)N1CCN=C1SCc1cccc(F)c1", "activity change, negative = inhibition": "inactive: 9.55%"}
{"smiles": "COc1cc2c(C(=O)OCCN(C)C)c(CSc3ccccc3)n(C)c2cc1Br", "Potency": "inconclusive [inhibitor, single point]"}
{"smiles": "COc1ccc(C(=O)N2CCc3ccc(NC(=O)c4ccccn4)cc3C2)cc1F", "Potency": "active: 11.2 µM"}
{"smiles": "CCOC(=O)c1c(C)[nH]c(C=O)c1Cc1cccc(Cl)c1", "activity change, negative = inhibition": "inactive: 19.6%"}
{"smiles": "O=C1CCN(CCc2ccccc2)CCN1CCSc1ccc(Br)cc1", "activity change, negative = inhibition": "inactive: -2.62%"}
{"smiles": "Cc1noc(C)c1CSc1nc2ccccc2c(=O)n1-c1ccc(Cl)cc1", "Potency": "inconclusive [inhibitor, single point]"}
{"smiles": "O=C(c1ccc(F)cc1)N1CCN(c2cc(N3CCCCC3)c(F)cc2[N+](=O)[O-])CC1", "Potency": "inconclusive [inhibitor, full curve]"}
{"smiles": "CCOc1ccc(CCNC(=O)C2CCN(c3nnc(-n4cccc4)s3)CC2)cc1OCC", "Potency": "inconclusive [inhibitor, partial curve]"}
{"smiles": "C=C(C)Cn1c(C)cc(C)c(S(=O)(=O)c2ccccc2C)c1=O", "Potency": "inconclusive [inhibitor, partial curve]"}
{"smiles": "CCOC(=O)CCc1c(C)nc2c(c(C)nn2-c2ccccc2)c1C", "activity change, negative = inhibition": "inactive: 6.29%"}
{"smiles": "O=C(c1cccs1)N1CCCC(N2CCN(c3cccc(C(F)(F)F)c3)CC2)C1", "note": "(stereo not given)", "Potency": "inconclusive [inhibitor, partial curve]"}
{"smiles": "Cc1nc2ccc(C(=O)Nc3cccc([N+](=O)[O-])c3)cc2s1", "Potency": "inconclusive [inhibitor, partial curve]"}
{"smiles": "CNc1oc(-c2ccc(Cl)cc2)nc1P(=O)(c1ccccc1)c1ccccc1", "Potency": "inconclusive [inhibitor, single point]"}
{"smiles": "CCCCOc1ccc(N(CC(=O)NCC2CCCO2)C(=O)CCC(=O)Nc2nccs2)cc1", "note": "(stereo not given)", "activity change, negative = inhibition": "inactive: 3.12%"}
{"smiles": "C[C@H]1CN=C(Nc2ccccc2)N1CCC1CCCCC1", "Potency": "inconclusive [inhibitor, partial curve]"}
{"smiles": "CS(=O)(=O)N(CC(=O)NCC1CCCO1)c1cccc(Cl)c1", "note": "(stereo not given)", "activity change, negative = inhibition": "inactive: -6.3%"}
{"smiles": "COc1ccc(OC)c(N/C=C2/CCCCC2=O)c1", "Potency": "inconclusive [inhibitor, single point]"}
{"smiles": "O=C(COc1ccc(S(=O)(=O)N2CCOCC2)cc1)Nc1ccc(Cl)c(C(F)(F)F)c1", "Potency": "inconclusive [inhibitor, single point]"}
{"smiles": "COc1ccc(C(=O)N/C(N)=N/c2nc3ccccc3o2)cc1", "Potency": "inconclusive [inhibitor, full curve, poor fit]"}
